# According to a collection of fitness landscapes (doi:10.1016/j.celrep.2020.107928):
# Over roughly 81,000 sequences, “one-hybrid fitness for binding parS DNA” has its median near -0.17; the highest 2% begin near 0.51. Some of the results follow.
# B1: Caulobacter ParB omega fusion; a variant is named by its letters at X, in order, B8GW30 (parent)
# chain: MESVVVGEPGMSEGRRGLGRGLSALLGEVDAAPAQAPGEQLGGSREAPIEILQRNPDQPRRTFREEDLEDLSNSIREKGVLQPILVRPSPDTAGEYQIVAGERAWRAAQRAGLKTVPIMVRELDDLAVLEIGIIENVQRADLNVLEEALSYKVLMEKFERTQENIAQTIGKSXSHVANXMRLLXLPDEVQSYLVSGELTAXHARAIAAAADPVALAKQIIEGGLSVRETEALARKAPNLSAGKSKGGRPPRVKDTDTQALESDLSSVLGLDVSIDHRGSTGTLTITYATLEQLDDLCNRLTRGI
# Variants of: B1
# Assay: one-hybrid fitness for binding parS DNA (scaled: cognate 1, non-cognate 0); higher = stronger binding
# Conditions: with parS DNA site
# Method in brief: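 The reporter was HIS3, with the binding site 19 bp from the promoter, in E. coli USO used for bacterial one-hybrid selection of Caulobacter ParB libraries with four specificity codons randomised. Growth was on M9 lacking histidine, with 0.1 mM IPTG and 5 mM 3-AT, for 48 hours at 37°C. Illumina sequencing covered plasmids before and after selection; three replicate libraries were pooled and variants with under 10 reads dropped. A fitness score is the log change in variant-to-wild-type read ratio, rescaled to the cognate and non-cognate references.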
row,Variant,one-hybrid fitness for binding parS DNA
1,LNTC,≤ 0.2
2,RHSF,≤ 0.2
3,AAMY,≤ 0.2
4,RPSR,≤ 0.2
5,FARG,≤ 0.2
6,DSYC,≤ 0.2
7,NDPK,≤ 0.2
8,DASR,≤ 0.2
9,RFDW,≤ 0.2
10,PKAC,≤ 0.2
11,RLQP,0.206
12,PDRR,≤ 0.2
13,TDLL,≤ 0.2
14,VESG,≤ 0.2
15,RQKY,0.581
16,PDSV,≤ 0.2
17,HHGL,≤ 0.2
18,GFMS,≤ 0.2
19,CSNM,≤ 0.2
20,DMVF,≤ 0.2
21,RNLR,≤ 0.2
22,NIDV,≤ 0.2
23,YPEY,≤ 0.2
24,TSGH,≤ 0.2

row,Variant,one-hybrid fitness for binding parS DNA
1,LPIV,≤ 0.2
2,MGAG,≤ 0.2
3,KNIT,≤ 0.2
4,RKCT,0.803
5,MVSC,≤ 0.2
6,AQEK,≤ 0.2
7,QTLT,≤ 0.2
8,VSLR,≤ 0.2
9,GQAG,≤ 0.2
10,QANQ,≤ 0.2
11,TLCA,≤ 0.2
12,QSVR,≤ 0.2
13,SRTK,≤ 0.2
14,EWLT,≤ 0.2
15,PLQF,≤ 0.2
16,MHTE,≤ 0.2
17,MFHS,≤ 0.2
18,KMLW,≤ 0.2
19,VTVH,≤ 0.2
20,EMSW,≤ 0.2
21,KGWL,≤ 0.2
22,RDLN,≤ 0.2
23,AHAF,≤ 0.2
24,RMAC,0.994

row,Variant,one-hybrid fitness for binding parS DNA
1,VWPC,≤ 0.2
2,VDSN,≤ 0.2
3,QTPC,≤ 0.2
4,QIMC,≤ 0.2
5,SSMH,≤ 0.2
6,ECIV,≤ 0.2
7,FINF,≤ 0.2
8,YWWR,≤ 0.2
9,AATM,≤ 0.2
10,CKMG,≤ 0.2
11,MGRI,≤ 0.2
12,RCYH,0.301
13,QSHG,≤ 0.2
14,EGIC,≤ 0.2
15,KYKM,≤ 0.2
16,MLLP,≤ 0.2
17,QVMY,≤ 0.2
18,GSLK,≤ 0.2
19,PETM,≤ 0.2
20,RQMW,0.232
21,QSCS,≤ 0.2
22,YRFS,≤ 0.2
23,PHPH,≤ 0.2
24,MARV,≤ 0.2

row,Variant,one-hybrid fitness for binding parS DNA
1,RFLH,0.217
2,NMAP,≤ 0.2
3,VDRG,≤ 0.2
4,VTVT,≤ 0.2
5,YNNK,≤ 0.2
6,KPVC,≤ 0.2
7,QRPH,≤ 0.2
8,CPEG,≤ 0.2
9,PPKV,≤ 0.2
10,EPKG,≤ 0.2
11,PPDN,≤ 0.2
12,VFFA,≤ 0.2
13,EAFG,≤ 0.2
14,RAHL,≤ 0.2
15,GNIG,≤ 0.2
16,DDCV,≤ 0.2
17,ELRK,≤ 0.2
18,SKLL,≤ 0.2
19,RGRC,0.798
20,RCHH,≤ 0.2
21,GWIG,≤ 0.2
22,MYER,≤ 0.2
23,LNHG,≤ 0.2
24,NEYS,≤ 0.2

row,Variant,one-hybrid fitness for binding parS DNA
1,REKI,≤ 0.2
2,AQSV,≤ 0.2
3,TNRD,≤ 0.2
4,GLGC,≤ 0.2
5,TEHD,≤ 0.2
6,PATM,≤ 0.2
7,GVAR,≤ 0.2
8,YTAA,≤ 0.2
9,INDI,≤ 0.2
10,KGIT,≤ 0.2
11,QAHV,≤ 0.2
12,VIGS,≤ 0.2
13,HTHK,≤ 0.2
14,LNRR,≤ 0.2
15,AWNR,≤ 0.2
16,RTAC,0.98
17,SFDF,≤ 0.2
18,QHFA,≤ 0.2
19,HLPV,≤ 0.2
20,YPLC,≤ 0.2
21,RMSD,≤ 0.2
22,IGST,≤ 0.2
23,ATSV,≤ 0.2
24,NLSF,≤ 0.2

row,Variant,one-hybrid fitness for binding parS DNA
1,HYED,≤ 0.2
2,HGRM,≤ 0.2
3,RRAV,≤ 0.2
4,KRDA,≤ 0.2
5,ERRS,≤ 0.2
6,NIFD,≤ 0.2
7,PSVE,≤ 0.2
8,LNTE,≤ 0.2
9,EALG,≤ 0.2
10,STLE,≤ 0.2
11,LCSE,≤ 0.2
12,LSIM,≤ 0.2
13,YEEM,≤ 0.2
14,AYDP,≤ 0.2
15,GLNG,≤ 0.2
16,KRNT,≤ 0.2
17,PVRA,≤ 0.2
18,VQGI,≤ 0.2
19,CTAV,≤ 0.2
20,SHVG,≤ 0.2
21,IQAT,≤ 0.2
22,FLGV,≤ 0.2
23,YYVQ,≤ 0.2
24,YTTW,≤ 0.2

row,Variant,one-hybrid fitness for binding parS DNA
1,LPGK,≤ 0.2
2,RFRW,0.237
3,VVCS,≤ 0.2
4,KATM,≤ 0.2
5,FNWR,≤ 0.2
6,RVVE,≤ 0.2
7,TDPR,≤ 0.2
8,QFQC,≤ 0.2
9,SHTC,≤ 0.2
10,PING,≤ 0.2
11,PMPA,≤ 0.2
12,VGMR,≤ 0.2
13,ISDN,0.207
14,PFVR,≤ 0.2
15,ASIV,≤ 0.2
16,GPRC,≤ 0.2
17,KARW,≤ 0.2
18,SYSC,≤ 0.2
19,HLML,≤ 0.2
20,QYNG,≤ 0.2
21,CRLI,≤ 0.2
22,RWAG,0.72
23,NNCL,≤ 0.2
24,KEMR,≤ 0.2

row,Variant,one-hybrid fitness for binding parS DNA
1,QIKG,≤ 0.2
2,YRHA,≤ 0.2
3,FWFS,≤ 0.2
4,RITN,0.409
5,GLES,≤ 0.2
6,RYGI,≤ 0.2
7,GQNS,≤ 0.2
8,KRDY,≤ 0.2
9,LTCR,≤ 0.2
10,TKTT,≤ 0.2
11,WFKT,≤ 0.2
12,ERNK,≤ 0.2
13,NDRK,≤ 0.2
14,YRCL,≤ 0.2
15,NPKG,≤ 0.2
16,FPAL,≤ 0.2
17,PAKR,≤ 0.2
18,TQLW,≤ 0.2
19,SETR,≤ 0.2
20,RPWC,≤ 0.2
21,FQIS,≤ 0.2
22,WAPS,≤ 0.2
23,AGWN,≤ 0.2
24,EPDG,≤ 0.2

row,Variant,one-hybrid fitness for binding parS DNA
1,CRQY,≤ 0.2
2,RDKF,≤ 0.2
3,RPQV,≤ 0.2
4,NFAV,≤ 0.2
5,MVWG,≤ 0.2
6,MKET,≤ 0.2
7,KTDL,≤ 0.2
8,GHSI,≤ 0.2
9,NCGR,≤ 0.2
10,WLHG,≤ 0.2
11,MSCE,≤ 0.2
12,YKRH,≤ 0.2
13,MSKI,≤ 0.2
14,DKHT,≤ 0.2
15,QMGC,≤ 0.2
16,VQPR,≤ 0.2
17,DTNS,≤ 0.2
18,IQYA,≤ 0.2
19,HSRS,≤ 0.2
20,AQIA,≤ 0.2
21,SRKV,≤ 0.2
22,RKYL,≤ 0.2
23,MGCR,≤ 0.2
24,FNNA,≤ 0.2

row,Variant,one-hybrid fitness for binding parS DNA
1,NSRS,≤ 0.2
2,RRVN,0.268
3,PWSP,≤ 0.2
4,RKAK,≤ 0.2
5,NLLC,≤ 0.2
6,DQCR,≤ 0.2
7,HKAR,≤ 0.2
8,LNDS,≤ 0.2
9,TDTD,≤ 0.2
10,PRRM,≤ 0.2
11,CRWR,≤ 0.2
12,TTQA,≤ 0.2
13,CMEG,≤ 0.2
14,AQSQ,≤ 0.2
15,TEPP,≤ 0.2
16,PQIL,≤ 0.2
17,KCKE,≤ 0.2
18,STQF,≤ 0.2
19,PMIW,≤ 0.2
20,QHEV,≤ 0.2
21,FQGG,≤ 0.2
22,QSPE,≤ 0.2
23,HKHT,≤ 0.2
24,QREI,≤ 0.2

row,Variant,one-hybrid fitness for binding parS DNA
1,QAKL,≤ 0.2
2,QEYT,≤ 0.2
3,FCHY,≤ 0.2
4,FIGS,≤ 0.2
5,KTKV,≤ 0.2
6,PTST,≤ 0.2
7,TIQY,≤ 0.2
8,KRRE,≤ 0.2
9,ICQR,≤ 0.2
10,RHSE,≤ 0.2
11,SLSQ,≤ 0.2
12,PPVK,≤ 0.2
13,TPNV,≤ 0.2
14,QVQW,≤ 0.2
15,WAYR,≤ 0.2
16,HDGS,≤ 0.2
17,STYL,≤ 0.2
18,PLWE,≤ 0.2
19,NANN,≤ 0.2
20,LQCS,≤ 0.2
21,NVIV,≤ 0.2
22,VIPR,≤ 0.2
23,QDRC,≤ 0.2
24,PWPS,≤ 0.2

row,Variant,one-hybrid fitness for binding parS DNA
1,NMKQ,≤ 0.2
2,RSTG,1
3,AYNS,≤ 0.2
4,FTCL,≤ 0.2
5,CNSI,≤ 0.2
6,TPRK,≤ 0.2
7,QKHF,≤ 0.2
8,EANI,≤ 0.2
9,HYNR,≤ 0.2
10,EDPL,≤ 0.2
11,TTAT,≤ 0.2
12,MSDS,≤ 0.2
13,PQRW,≤ 0.2
14,SNAV,≤ 0.2
15,REVI,≤ 0.2
16,PKGG,≤ 0.2
17,LMTW,≤ 0.2
18,KHKI,≤ 0.2
19,QKGA,≤ 0.2
20,TEMR,≤ 0.2
21,VYHT,≤ 0.2
22,WPGS,≤ 0.2
23,GWRW,≤ 0.2
24,GHDF,≤ 0.2

row,Variant,one-hybrid fitness for binding parS DNA
1,PSKW,≤ 0.2
2,FPPS,≤ 0.2
3,PSCW,≤ 0.2
4,EVFS,≤ 0.2
5,REKA,≤ 0.2
6,PWLS,≤ 0.2
7,GVND,≤ 0.2
8,QVVN,≤ 0.2
9,FPDF,≤ 0.2
10,VRNR,≤ 0.2
11,TPPG,≤ 0.2
12,FNER,≤ 0.2
13,RGWT,0.388
14,SQTS,≤ 0.2
15,MLIG,≤ 0.2
16,QQAV,≤ 0.2
17,HMQF,≤ 0.2
18,EGST,≤ 0.2
